No constants are given. Whether binding was seen depends on the method and setting. Binding seen in cells or lysates may run through a third protein. Some results given as binding are weak or reduced against the parent protein; the word gives no strength. For part of these data: Where a sequence is shown, tags or fusion partners need not be part of it.
Legend:
Myc-STUB1 = Myc-STUB1 (UniProt Q9UNE7); assay: co-IP; HEK293T with Myc-STUB1 plasmids together with or without Flag-GOT2 or Flag-GOT1 plasmids, 48 h; lysates immunoprecipitated with anti-Myc magnetic beads; GOT2 knockdown also tested
HA-tagged GOT2 = target: T1, HA-tagged GOT2 (UniProt P00505); assay: co-IP; HEK293T co-transfected with HA-GOT2 and Flag-tagged STUB1 (full length or deletion mutants); lysates immunoprecipitated by the tags (anti-Flag magnetic beads for the deletion mutants, 24 h), blotted for HA and Flag
T1 sequence: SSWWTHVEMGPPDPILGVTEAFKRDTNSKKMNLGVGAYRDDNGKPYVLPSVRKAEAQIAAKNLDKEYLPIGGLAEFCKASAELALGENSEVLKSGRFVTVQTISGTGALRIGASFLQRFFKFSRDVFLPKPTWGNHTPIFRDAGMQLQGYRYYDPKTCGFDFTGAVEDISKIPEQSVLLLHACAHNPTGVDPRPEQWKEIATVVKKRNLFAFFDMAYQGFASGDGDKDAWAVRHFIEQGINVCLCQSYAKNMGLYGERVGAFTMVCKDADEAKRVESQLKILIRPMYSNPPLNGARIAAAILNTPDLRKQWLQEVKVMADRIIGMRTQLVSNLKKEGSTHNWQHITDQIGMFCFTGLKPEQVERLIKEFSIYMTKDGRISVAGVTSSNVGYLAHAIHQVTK

Amino acid sequences for entries named in this document (tags omitted).
UniProt Q9UNE7: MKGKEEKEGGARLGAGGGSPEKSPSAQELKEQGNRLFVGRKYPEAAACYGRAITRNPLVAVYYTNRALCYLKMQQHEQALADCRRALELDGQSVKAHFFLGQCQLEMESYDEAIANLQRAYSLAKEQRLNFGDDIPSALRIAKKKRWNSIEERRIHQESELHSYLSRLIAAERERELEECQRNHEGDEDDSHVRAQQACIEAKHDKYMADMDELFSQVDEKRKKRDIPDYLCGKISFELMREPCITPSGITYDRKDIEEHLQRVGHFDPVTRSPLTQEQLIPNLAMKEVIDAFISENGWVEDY
UniProt P17174: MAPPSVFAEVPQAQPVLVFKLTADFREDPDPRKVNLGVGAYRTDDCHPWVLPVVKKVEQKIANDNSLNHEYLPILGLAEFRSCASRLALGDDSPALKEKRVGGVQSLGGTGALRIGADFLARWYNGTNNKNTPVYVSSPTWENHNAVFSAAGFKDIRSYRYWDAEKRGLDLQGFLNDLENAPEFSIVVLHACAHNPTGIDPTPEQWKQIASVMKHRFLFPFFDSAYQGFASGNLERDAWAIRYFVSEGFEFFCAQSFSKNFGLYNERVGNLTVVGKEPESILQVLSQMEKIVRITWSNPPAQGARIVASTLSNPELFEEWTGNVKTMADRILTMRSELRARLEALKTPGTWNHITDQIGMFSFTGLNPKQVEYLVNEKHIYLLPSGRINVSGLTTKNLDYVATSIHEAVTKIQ

[1] = target: Purified recombinant STUB1 protein (UniProt Q9UNE7); assay: pull-down; purified recombinant STUB1 from bacteria incubated with extracts of HA-GOT2-transfected HEK293T cells, blotted with HA-tag antibody; cell-free conditions; only the target purified
[2] = target: Flag-tagged full-length STUB1 (UniProt Q9UNE7); assay: co-IP; HEK293T co-transfected with HA-GOT2 and Flag-tagged STUB1 (full length or deletion mutants); lysates immunoprecipitated by the tags (anti-Flag magnetic beads for the deletion mutants, 24 h), blotted for HA and Flag
[3] = target: endogenous STUB1 (human (endogenous in T24 and UC3)) (UniProt Q9UNE7); assay: co-IP; UC3 or T24 cell lysates immunoprecipitated with control IgG, anti-STUB1 or anti-GOT2 antibody; blotted with the indicated antibodies

Question: How did the binding (Myc-STUB1) turn out when “Flag-GOT1 (from UniProt P17174 1-413) (enzyme)” was run?
Answer: The binding was “no binding”.

Question: Which binding (HA-tagged GOT2) does the source give for “Flag-tagged full-length STUB1 (from UniProt Q9UNE7 1-303) (enzyme)” here?
Answer: The binding was “binds”.

B1: HA-tagged GOT2 (enzyme, UniProt P00505 30-430)
chain: T1 sequence
Question: Which results are given for B1?
Answer: binding [1]: binds; binding [2]: binds

B2: endogenous GOT2 (enzyme, UniProt P00505 30-430)
chain: T1 sequence
Question: How did the binding [3] turn out when B2 was run?
Answer: The binding was “binds”.

B3: Flag-GOT2 (enzyme, UniProt P00505 30-430)
chain: T1 sequence
Question: How did the binding (Myc-STUB1) turn out when B3 was run?
Answer: The binding was “binds”.
